According to the supplement of paper PMC8728848:
Some of the results follow.

Tests used:
Assay in all cases: glycan array binding signal (z-score within array); higher = stronger binding
Conditions in all cases: glycan notation: IUPAC condensed, linker removed
[1] = molecular target: Neu5Ac(a2-3)Gal(b1-4)[Fuc(a1-3)]GlcNAc(b1-3)Gal
How it was run: (§1)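 Arrays were curated from the Consortium for Functional Glycomics database, 3228 in total, and kept only where the protein sequence was available. Binding is expressed as a within-array Z-score. This score was averaged across arrays of the same protein sequence at different concentrations or buffers and across linkers, and negative values can be read as non-binding.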

[2] = molecular target: Neu5Ac(a2-3)Gal(b1-4)[Fuc(a1-3)]GlcNAc(b1-3)Gal(b1-4)GlcNAc
How it was run: as §1

[3] = molecular target: Neu5Ac(a2-3)Gal(b1-4)[Fuc(a1-3)]GlcNAc(b1-3)Gal(b1-4)[Fuc(a1-3)]GlcNAc(b1-3)Gal(b1-4)[Fuc(a1-3)]GlcNAc
How it was run: as §1

[4] = molecular target: Neu5Ac(a2-3)Gal(b1-4)[Fuc(a1-3)]GlcNAc(b1-3)GalNAc
How it was run: as §1

[5] = molecular target: Neu5Ac(a2-3)Gal(b1-4)[Fuc(a1-3)]GlcNAc(b1-6)[Gal(b1-3)]GalNAc
How it was run: as §1

[6] = molecular target: Neu5Ac(a2-3)Gal(b1-4)[Fuc(a1-3)]GlcNAc6S
How it was run: as §1

[7] = molecular target: Neu5Ac(a2-3)Gal6S(b1-4)GlcNAc
How it was run: as §1

[8] = molecular target: Neu5Ac(a2-3)Gal6S(b1-4)[Fuc(a1-3)]GlcNAc
How it was run: as §1

Neu5Ac(a2-3)GalNAc = molecular target: Neu5Ac(a2-3)GalNAc
How it was run: as §1

[9] = molecular target: Neu5Ac(a2-3)GalNAc(b1-4)GlcNAc
How it was run: as §1

[10] = molecular target: Neu5Ac(a2-3)[GalNAc(b1-4)]Gal(b1-4)Glc
How it was run: as §1

[11] = molecular target: Neu5Ac(a2-3)[GalNAc(b1-4)]Gal(b1-4)GlcNAc
How it was run: as §1

[12] = molecular target: Neu5Ac(a2-3)[GalNAc(b1-4)]Gal(b1-4)GlcNAc(b1-3)GalNAc
How it was run: as §1

[13] = molecular target: Neu5Ac(a2-3)[Neu5Ac(a2-6)]GalNAc
How it was run: as §1

Neu5Ac(a2-6)Gal = molecular target: Neu5Ac(a2-6)Gal
How it was run: as §1

[14] = molecular target: Neu5Ac(a2-6)Gal(b1-3)GlcNAc(b1-3)[Gal(b1-4)GlcNAc(b1-6)]Gal(b1-4)Glc
How it was run: as §1

Neu5Ac(a2-6)Gal(b1-4)Glc = molecular target: Neu5Ac(a2-6)Gal(b1-4)Glc
How it was run: as §1

[15] = molecular target: Neu5Ac(a2-6)Gal(b1-4)GlcNAc
How it was run: as §1

[16] = molecular target: Neu5Ac(a2-6)Gal(b1-4)GlcNAc(b1-2)Man(a1-3)Man(b1-4)GlcNAc(b1-4)GlcNAc
How it was run: as §1

[17] = molecular target: Neu5Ac(a2-6)Gal(b1-4)GlcNAc(b1-2)Man(a1-3)[Gal(b1-4)GlcNAc(b1-2)Man(a1-6)]Man(b1-4)GlcNAc(b1-4)GlcNAc
How it was run: as §1

[18] = molecular target: Neu5Ac(a2-6)Gal(b1-4)GlcNAc(b1-2)Man(a1-3)[GlcNAc(b1-2)Man(a1-6)]Man(b1-4)GlcNAc(b1-4)GlcNAc
How it was run: as §1

[19] = molecular target: Neu5Ac(a2-6)Gal(b1-4)GlcNAc(b1-2)Man(a1-3)[GlcNAc(b1-2)Man(b1-4)GlcNAc(b1-2)Man(a1-6)]Man(b1-4)GlcNAc(b1-4)GlcNAc
How it was run: as §1

[20] = molecular target: Neu5Ac(a2-6)Gal(b1-4)GlcNAc(b1-2)Man(a1-3)[Man(a1-6)]Man(b1-4)GlcNAc(b1-4)GlcNAc
How it was run: as §1

[21] = molecular target: Neu5Ac(a2-6)Gal(b1-4)GlcNAc(b1-2)Man(a1-3)[Neu5Ac(a2-6)Gal(b1-4)GlcNAc(b1-2)Man(a1-6)]Man(b1-4)GlcNAc(b1-4)GlcNAc
How it was run: as §1

[22] = molecular target: Neu5Ac(a2-6)Gal(b1-4)GlcNAc(b1-2)Man(a1-3)[Neu5Ac(a2-6)Gal(b1-4)GlcNAc(b1-2)Man(a1-6)]Man(b1-4)GlcNAc(b1-4)[Fuc(a1-6)]GlcNAc
How it was run: as §1

[23] = molecular target: Neu5Ac(a2-6)Gal(b1-4)GlcNAc(b1-2)Man(a1-6)Man(b1-4)GlcNAc(b1-4)GlcNAc
How it was run: as §1

[24] = molecular target: Neu5Ac(a2-6)Gal(b1-4)GlcNAc(b1-2)Man(a1-6)[Gal(b1-4)GlcNAc(b1-2)Man(a1-3)]Man(b1-4)GlcNAc(b1-4)GlcNAc
How it was run: as §1

[25] = molecular target: Neu5Ac(a2-6)Gal(b1-4)GlcNAc(b1-2)Man(a1-6)[GlcNAc(b1-2)Man(a1-3)]Man(b1-4)GlcNAc(b1-4)GlcNAc
How it was run: as §1

[26] = molecular target: Neu5Ac(a2-6)Gal(b1-4)GlcNAc(b1-2)Man(a1-6)[Man(a1-3)]Man(b1-4)GlcNAc(b1-4)GlcNAc
How it was run: as §1

[27] = molecular target: Neu5Ac(a2-6)Gal(b1-4)GlcNAc(b1-3)Gal(b1-3)GlcNAc
How it was run: as §1

[28] = molecular target: Neu5Ac(a2-6)Gal(b1-4)GlcNAc(b1-3)Gal(b1-4)GlcNAc
How it was run: as §1

[29] = molecular target: Neu5Ac(a2-6)Gal(b1-4)GlcNAc(b1-3)Gal(b1-4)GlcNAc(b1-3)Gal(b1-4)GlcNAc
How it was run: as §1

[30] = molecular target: Neu5Ac(a2-6)Gal(b1-4)GlcNAc(b1-3)Gal(b1-4)[Fuc(a1-3)]GlcNAc(b1-3)Gal(b1-4)[Fuc(a1-3)]GlcNAc
How it was run: as §1

[31] = molecular target: Neu5Ac(a2-6)Gal(b1-4)GlcNAc(b1-3)GalNAc
How it was run: as §1

[32] = molecular target: Neu5Ac(a2-6)Gal(b1-4)GlcNAc(b1-3)[Neu5Ac(a2-6)Gal(b1-4)GlcNAc(b1-6)]GalNAc
How it was run: as §1

[33] = molecular target: Neu5Ac(a2-6)Gal(b1-4)GlcNAc(b1-6)GalNAc
How it was run: as §1

[34] = molecular target: Neu5Ac(a2-6)Gal(b1-4)GlcNAc(b1-6)[Gal(b1-3)GlcNAc(b1-3)]Gal(b1-4)Glc
How it was run: as §1

[35] = molecular target: Neu5Ac(a2-6)Gal(b1-4)GlcNAc6S
How it was run: as §1

B1: RVL (Remusatia vivipara), B5LYJ9 (protein)
chain: MAKLLLFLLPAILGLLVPRSAVALGTNYLLSGQTLDTEGHLKNGDFDLVMQDDCNLVLYNGNWQSNTANNGRDCKLTLTDYGELVIKNGDGSTVWKSGAQSVKGNYAAVVHPDGRLVVLGPSVFKIDPWVRGLNSLRFRNIPFTNNLLFSGQVLYGDGRLTAKNHQLVMQGDCNLVLYGGKYGWQSNTHGNGEHCFLRLNHKGELIIKDDDFKTIWSSRSSSKQGEYVLILQDDGFGVIYGPAIFETSSKRSIAAS
What does the source list for B1?
glycan array binding signal (z-score) [1]: -0.116; glycan array binding signal (z-score) [2]: -0.268; glycan array binding signal (z-score) [3]: -0.061; glycan array binding signal (z-score) [4]: -0.181; glycan array binding signal (z-score) [5]: -0.058; glycan array binding signal (z-score) [6]: -0.311; glycan array binding signal (z-score) [7]: -0.184; glycan array binding signal (z-score) [8]: 0.044; glycan array binding signal (z-score) (Neu5Ac(a2-3)GalNAc): -0.238; glycan array binding signal (z-score) [9]: -0.3; glycan array binding signal (z-score) [10]: -0.203; glycan array binding signal (z-score) [11]: -0.157; glycan array binding signal (z-score) [12]: 1.58; glycan array binding signal (z-score) [13]: -0.142; glycan array binding signal (z-score) (Neu5Ac(a2-6)Gal): -0.192; glycan array binding signal (z-score) [14]: -0.236; glycan array binding signal (z-score) (Neu5Ac(a2-6)Gal(b1-4)Glc): -0.296; glycan array binding signal (z-score) [15]: -0.278; glycan array binding signal (z-score) [16]: -0.05; glycan array binding signal (z-score) [17]: -0.115; glycan array binding signal (z-score) [18]: -0.184; glycan array binding signal (z-score) [19]: -0.258; glycan array binding signal (z-score) [20]: -0.305; glycan array binding signal (z-score) [21]: -0.073; glycan array binding signal (z-score) [22]: -0.474; glycan array binding signal (z-score) [23]: -0.159; glycan array binding signal (z-score) [24]: 0.021; glycan array binding signal (z-score) [25]: -0.207; glycan array binding signal (z-score) [26]: -0.051; glycan array binding signal (z-score) [27]: -0.229; glycan array binding signal (z-score) [28]: 0.044; glycan array binding signal (z-score) [29]: -0.02; glycan array binding signal (z-score) [30]: -0.077; glycan array binding signal (z-score) [31]: -0.218; glycan array binding signal (z-score) [32]: 0.127; glycan array binding signal (z-score) [33]: -0.2; glycan array binding signal (z-score) [34]: 0.033; glycan array binding signal (z-score) [35]: -0.224
